In the antibiotic and cytotoxicity screens of Wong et al. (2023):
The other results are listed elsewhere or left out.

System: S. aureus RN4220
Experiment: growth inhibition call (relative growth <= 0.2)
Details: 50 µM

Growth inhibition call, inactive:
C=CCC[C@H](Cc1ccc(F)cc1)C(=O)OC[C@@H](Cc1c[nH]c2ccccc12)NC(=O)[C@H](CC=C)CC(=O)N(CCO)Cc1ccccc1, COCC#Cc1ccc2c(c1)O[C@@H](CN(C)S(=O)(=O)c1ccc(F)cc1)[C@@H](C)CN([C@@H](C)CO)S2(=O)=O, Cc1ccc(S(=O)(=O)Nc2ccc3c(c2)C(=O)N([C@H](C)CO)C[C@H](C)[C@H](CN(C)S(C)(=O)=O)OCCCC[C@H](C)O3)cc1, O=C(CN1CCOCC1)NCC[C@H]1CC[C@@H](NC(=O)c2ccc3c(c2)OCO3)[C@H](CO)O1, CC(C)CCN1CCn2c(CO)nnc2C1, COc1cccc(-c2ccc3c(c2)O[C@@H](CN(C)Cc2cncnc2)[C@H](C)CN([C@H](C)CO)S3(=O)=O)c1, CNC(=O)Nc1ccc(C(=O)NC)cc1, COCC(=O)Nc1ccc2c(c1)C(=O)N(C)C[C@@H](OC)[C@H](C)CN(C(=O)c1ccccc1F)[C@H](C)CO2, COC(=O)c1c(CC[C@@H](CO)NC(=O)N[C@H](Cn2cc(Cc3ccccc3)nn2)C(C)C)oc(C(C)=O)c1C(=O)OC, O=C(CCC(=O)N1CCOCC1)Nc1c(F)c(F)nc(N2CCOCC2)c1F, CCOC(=O)C(CCc1ccccc1)NC(C)C(=O)N1C(C(=O)O)CC2CCCC21 (centres undefined), O=C(C[C@@H]1CC[C@H]2[C@@H](COC[C@@H](O)CN2Cc2cccc(C(F)(F)F)c2)O1)NCCc1ccncc1, COc1ccc(CN(C)C[C@@H]2OCCCC[C@@H](C)Oc3ccc(NS(=O)(=O)c4c(C)noc4C)cc3C(=O)N([C@H](C)CO)C[C@@H]2C)cc1, C[C@@H]1CN([C@@H](C)CO)S(=O)(=O)c2ccc(C#CCC3CCCC3)cc2O[C@H]1CN(C)C(=O)CN(C)C, C[C@@H]1CCCCO[C@@H](CN(C)Cc2ccc(C(F)(F)F)cc2)[C@@H](C)CN([C@H](C)CO)C(=O)c2cc(NS(=O)(=O)c3ccc(Cl)cc3)ccc2O1, COc1ccc([Si](C)(C)[C@@H]2[C@@H](CC(=O)N3CCC[C@H]3CO)O[C@]3(C(=O)N(Cc4cccc(N5CCCCC5=O)c4)c4ccccc43)[C@H]2C)cc1, Cc1ccc(S(=O)(=O)N(C)C[C@H]2OCCCC[C@@H](C)Oc3ccc(NC(=O)Cc4ccccc4)cc3C(=O)N([C@@H](C)CO)C[C@H]2C)cc1, Cc1noc(C)c1NC(=O)Nc1ccc2c(c1)C(=O)N([C@H](C)CO)C[C@@H](C)[C@H](CN(C)C(=O)Nc1ccc(C(F)(F)F)cc1)O2, COc1ccc2c3c([nH]c2c1)[C@H](CO)N(CC1CCCC1)C[C@]13CCN(CC1)C(=O)c1ccc(cc1)F, O=C(O)c1cnc(N2CCCC2)nc1, C[C@@H]1CCCCO[C@@H](CN(C)Cc2ccc(C(F)(F)F)cc2)[C@@H](C)CN([C@@H](C)CO)C(=O)c2cc(NC(=O)c3ccncc3)ccc2O1, CCc1nc2c(OCC(=O)c3ccc(Cl)cc3Cl)cccn2c1N(C=O)Cc1ccc(OC)cc1, C[C@@H]1CCCCO[C@@H](CN(C)Cc2ccc(C(=O)O)cc2)[C@@H](C)CN([C@H](C)CO)C(=O)c2cc(NC(=O)NC3CCCCC3)ccc2O1, Cc1ccc(S(=O)(=O)Nc2ccc3c(c2)C(=O)N([C@@H](C)CO)C[C@H](C)[C@@H](CN(C)S(=O)(=O)c2ccc(C)cc2)OCCCC[C@H](C)O3)cc1, C[C@H](CO)N1C[C@H](C)[C@@H](CN(C)S(=O)(=O)c2ccc(Cl)cc2)OCCCC[C@H](C)Oc2ccc(NC(=O)NC3CCCCC3)cc2C1=O, O=C(O)CSc1ncnc2nc[nH]c12, C[C@H](CO)N1C[C@H](C)[C@@H](CN(C)S(=O)(=O)c2cn(C)cn2)Oc2c(NC(=O)C3CCOCC3)cccc2C1=O, O=C1O[C@H](c2ccccc2)[C@H](c2ccccc2)N2[C@H]1[C@@H](C(=O)N1CCCCCCC1)[C@]1(C(=O)Nc3ccc(C#CC4=CCCCC4)cc31)[C@H]2c1ccc(O)cc1, C=CCOC(=O)[C@H]1[C@@H]2C(=O)O[C@@H](c3ccccc3)[C@@H](c3ccccc3)N2[C@@H](c2ccc(OCCOC(=O)NCCCCCC(=O)NO)cc2)[C@@]12C(=O)Nc1ccccc12
